Experimental data as given in PubChem BioAssay AID504832 (National Center for Advancing Translational Sciences (NCATS), 2011).
About 18,000 (5.8%) of roughly 310,000 compounds were called active. The shares of active, inactive and inconclusive entries below differ from those in the screen. Calls follow the shape of the dose curve; as a rule, active = well fitted inhibition curve with a large enough effect; inconclusive = small, poorly fitted or top-dose-only effect, or another doubt; inactive = no such curve, though single readings can be large or run the other way. No potency is given beside an inconclusive call; the fits are too rough.

experiment: Primary qHTS for delayed death inhibitors of the malarial parasite plastid, 48 hour incubation; settings: P. falciparum luciferase growth in erythrocytes; series mostly up to 28.7 µM
In short: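 First compound was added to culture medium, then infected red cells at 0.1% parasitemia and 2% hematocrit (final). After incubation at 37 C under 5% CO2, luciferase detection reagent was dispensed and light output recorded.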
Potency is read from the fitted curve at half-maximal effect; tags tell the direction and shape of the fitted curve.

Compound | Potency
COc1ccccc1CNC(=O)C1CCCN(S(=O)(=O)c2ccc3c(c2)C(C)(C)C(=O)N3C)C1 (stereo unspecified) | inconclusive [inhibitor, partial curve, poor fit]
Cc1cccc(-c2nc3ccc(C(=O)NCCN4CCN(C)CC4)cc3nc2-c2cccc(C)c2)c1 | inconclusive [inhibitor, partial curve]
CCCC(=O)Nc1ccc2nc(C)n(Cc3ccccc3Cl)c(=O)c2c1 | inconclusive [inhibitor, partial curve, poor fit]
O=C(CSc1ncccc1C(=O)O)c1cccc(C(F)(F)F)c1 | inactive
O=C(CN1CCCCCCC1)N/N=C/c1ccc([N+](=O)[O-])o1 | inconclusive [inhibitor, partial curve]
Nc1nonc1-n1nnc(C(=O)N/N=C/c2ccc(OCc3cccc(Cl)c3)cc2)c1CN1CCCCC1 | inactive
CCOC(=O)N1CCN(S(=O)(=O)c2ccc(C(=O)Nc3nc4ccccc4s3)cc2)CC1 | inconclusive [inhibitor, single point]
Cc1cc(C(=O)N/N=C2\CC(=O)CC(C)(C)C2)c2ccccc2n1 | inconclusive [inhibitor, partial curve, poor fit]
CC(=O)Nc1ccc2nc(CN3CCC(CO)(CCc4ccccc4)CC3)ccc2c1 | inconclusive [inhibitor, single point]
CN(Cc1ccccc1)C(=C(Cl)Cl)C(=C1NCCN1)[N+](=O)[O-] | inactive
COc1ccccc1N1CCN(S(=O)(=O)c2ccc(F)cc2)CC1 | inconclusive [inhibitor, single point]
CCn1c(C)c(C2=CCN(S(=O)(=O)c3ccc(C)cc3)CC2)c2ccccc21 | inconclusive [inhibitor, single point]
O=C(Nc1ccc(F)cc1F)c1noc2c1CCC2 | inconclusive [inhibitor, single point]
Cc1ccccc1-n1nnnc1SCC(=O)NCC1(N2CCOCC2)CCCCC1 | inconclusive [inhibitor, single point]
Cc1ccccc1-n1sc2cc(F)ccc2c1=O | inconclusive [inhibitor, partial curve, poor fit]
O=C1c2cnc3nc(SCc4cccc(Cl)c4)nn3c2CC2c3ccccc3CCN12 (stereo unspecified) | inconclusive [inhibitor, single point]
CCCN(C1CCS(=O)(=O)C1)S(=O)(=O)c1cc(OC)ccc1OC (stereo unspecified) | inconclusive [inhibitor, single point]
CCn1cc(C(=O)O)c(=O)c2cc(F)c(N/N=C/c3ccccc3[N+](=O)[O-])cc21 | inactive
CC1CCCN(c2ccc(C(=O)OCC(=O)N3c4ccccc4Sc4ccccc43)cc2[N+](=O)[O-])C1 (stereo unspecified) | inconclusive [inhibitor, partial curve, poor fit]
CC(Sc1ncnc2sc(-c3ccccc3)cc12)C(=O)NCC1CCCO1 (stereo unspecified) | inconclusive [inhibitor, single point]
CC(Oc1cccc(Cl)c1)C(=O)Nc1ccccc1N1CCCCC1 (stereo unspecified) | active: 5.86 µM

Compound | Potency
O=C(COC(=O)/C=C/c1ccc(F)cc1)NC1CCS(=O)(=O)C1 (stereo unspecified) | inconclusive [inhibitor, partial curve, poor fit]
O=S(=O)(Nc1ccc2nc(N3CCOCC3)sc2c1)c1ccccc1 | inactive
O=C(Nc1nc(-c2ccc(Cl)s2)cs1)c1cccs1 | inconclusive [inhibitor, single point]
COc1ccc(OC)c(-c2cc(C(=O)Nc3c(C)nn(Cc4ccc(Cl)cc4)c3C)no2)c1 | inconclusive [inhibitor, single point]
COc1ccc(CNC(=O)c2cc3c(=O)[nH]c4ccccc4c3n2C)cc1 | inconclusive [inhibitor, full curve, poor fit]
O=C(Cc1ccc(-n2c(=O)[nH]c3ccccc3c2=O)cc1)N1CCN(c2ccccc2)CC1 | active: 11.7 µM
Cc1ccc(Cl)cc1NC(=O)NCc1ccccn1 | inactive
CCNC(=O)NC(=O)C(C)OC(=O)c1ccc(-n2nc(SC)sc2=S)cc1 (stereo unspecified) | inconclusive [inhibitor, single point]
CCC(C)(C)C1CCC2(CC1)NC(=O)N(CC(=O)NCCOc1ccccc1)C2=O (stereo unspecified) | inconclusive [inhibitor, single point]
CCC1CCCCN1C(=O)c1sc2ncnc(N(CC)CC)c2c1C (stereo unspecified) | inconclusive [inhibitor, full curve, poor fit]
Cc1ccc(S(=O)(=O)Nc2ccccc2CNC2CCCCC2)cc1 | inactive
COc1ccc(N(CC(=O)Nc2cccc(N(C)S(C)(=O)=O)c2)S(=O)(=O)c2ccccc2)cc1Cl | inconclusive [inhibitor, single point]
Cc1n(Cc2ccccc2)c2ccccc2[n+]1Cc1ccccc1 | active: 1.31 µM
CCOC(=O)C1(c2ccccc2)CCN(CCC(=O)Nc2cccc(Br)c2)CC1 | inconclusive [inhibitor, single point]
Cc1nc(NC(=O)c2ccccc2)sc1-c1csc(NCc2ccco2)n1 | active: 5.86 µM
CN(CC(=O)Nc1ccc(F)c(F)c1F)C(=O)c1cc(-c2ccncc2)nc2ccccc12 | inconclusive [inhibitor, partial curve]
COc1ccccc1-n1cnc2cc(NCc3ccccn3)ccc21 | inconclusive [inhibitor, partial curve, poor fit]
CCOc1ccc(CCNC(=O)CN2C(=O)c3cccnc3Oc3ccc(C)cc32)cc1OCC | inconclusive [inhibitor, partial curve, poor fit]
CCOC(CNC(=O)c1ccc2c(c1)ncn2-c1cccc(F)c1)OCC | inconclusive [inhibitor, full curve, poor fit]
CCOc1ccc(C2=Nc3ccc(Br)cc3C(c3ccc(N4CCOCC4)cc3)=NN2)cc1 | active: 10.4 µM
